From the supplement of paper PMC11417369
This is one part of the list.

Each sequence was assayed on PfAP2-HC AP2 domain (GST-tagged) (assay: gcPBM binding intensity (ln(normalized median fluorescence intensity)); higher = stronger DNA binding).
Summary of the method: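 After 1 h on an Agilent 4 × 180k array of primer-extended double-stranded 36-bp intergenic genomic probes and negative controls, bound GST-tagged P. falciparum DNA-binding domains were detected with Alexa488 anti-GST antibody and scanned at 488 nm. The domains had been expressed in E. coli, and binding took place in 1× PBS with 1% milk, 0.2 mg/ml BSA, 0.5% salmon testes DNA and 0.03% Triton X-100. Binding intensity is the highest Masliner-normalised natural-log median intensity across replicate spots of either probe orientation.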

Sequence | gcPBM binding intensity (ln)
ATTATATATATTGGAGTGCATATATAGTATTTTATA | 9.57
ATAGAAATCTATTGTGATTATTATTTTATTTTTAGT [XGTACX_negctrl_site605] | 9.58
TGAAGATAAAAATATGCACACATATATATATATATA [CACACA_site8027] | 10.1
CATAAAAATGAACATACACACATATATTTATTTATA [CACACA_site7222] | 9.84
TCCGTATAATTTTGCACACGAATATAAATTTGATAA [CACACA_site136] | 9.62
ATTATATCACTGTGTTGTACTTCTTATATAAAAATA [XGTACX_site2333] | 9.68
ACATATCGGGTGCATTAACACACATTTATTTGAATA [CACACA_site8736] | 9.77
ATATTACACAGATATGCACACATTGTAGTTATTTAT [CACACA_site5454] | 9.97
AAAAAGGAAATTTACACACACATATAACATACATTA [CACACA_site7534] | 10.5
AATTATAATAAATAACGTACAAAAAATAAATTATTT [XGTACX_site3627] | 9.74
ATAAAAATAAAATGGACACACATATATACATATTTG [CACACA_site3277] | 10.2
ATAAGCGAATATATATCACACACAAAAAAATCAGAC [CACACA_site8657] | 10.3
TATATATTCATGTGTACACACAAAAAAAAATAAAGT [CACACA_site2207] | 10.2
TTTTTTTTTGATATTTGTACTTAAGTAAATATTATA [XGTACX_site3843] | 9.51
ATATTAGGGTCATGAACACACAAAAAAAAAAAAAAA [CACACA_site937] | 9.55
TATCTTTTATAAGTGACACACATAAATATTTAAATT [CACACA_site833] | 9.6
GCTATCATATCATGTTGTACACAACCTCAAAATGAA [XGTACX_site8757] | 9.64
AATAAGTGTTGATTCTTAAAATGACCATATAATAAT [TGCATGCA_negctrl_site221] | 9.66
TCATATTTACAAAAAGGTATTAATAAATAAAATATT [CACACA_negctrl_site259] | 9.53
CGTTTATTAAACTTGACACACACACCCCCACATATA [CACACA_site8151] | 10.6
AATCGATAACAATGTAGTACCAGAAAAATAAATATT [XGTACX_site8501] | 9.92
TATATATATATATATGCATGCCATATGATATATATA [TGCATGCA_site109] | 9.58

Sequence | gcPBM binding intensity (ln)
TTTAATTCTTATATTTGTACAGATTCATAATTAAAT [XGTACX_site7465] | 9.41
CATGTCAAAATTATACGTACATATATAAGTTCCATT [XGTACX_site6331] | 9.65
AAAAAAAAATAAAAAAGTACATTCATTTTATAAGAT [XGTACX_site3507] | 9.6
ATCCTCTTTTTAAGTTGTACAGGGTCGAAAAAAAAA [XGTACX_site6852] | 9.26
GATTATTATTATAAGGGTACAAATATTTAATAAAAA [XGTACX_site7144] | 9.48
TTTTTTCAAATTATTCGATATGTAAAAAAATAAAAT [GTGCAC_negctrl_site241] | 9.23
AAATATTTGTGTGGTTGTACTATAATGATAAAAATA [XGTACX_site7703] | 9.88
TTTTTTTTTTTTGAGTGTACAAGATTGTTGTTCCAA [XGTACX_site6120] | 9.17
GGTTTGAATTTTTAAGTGCATATAACATAAATGAAA | 9.38
TTATATTATATATATATTATATATATGTATGCATAA [TGCATGCA_negctrl_site481] | 9.37
CATACATACAAACACACACACATATATATATATATA [CACACA_site43] | 10.2
AGATAGCTATTAAAAAGTACAAAAAAATATATATAT [XGTACX_site6289] | 9.71
ATAAATACAGATATTACACACTTCTTATTCTAAGAA [CACACA_site5640] | 9.64
TATTTTATATAAAGGTGTACTTATACAAAAATATAT [XGTACX_site7435] | 9.54
TATACAGGAATATTTTTACACACTAATAATTATAAA [CACACA_site8477] | 9.67
TATTTACAACAAATTTAATTATTTTTAACTTATAAA [GTGCAC_negctrl_site259] | 9.23
TCCCAATTTCTATCCTGTACAGACATAAATATATAC [XGTACX_site5937] | 9.73
AAGTAATTTGTTGACACACACACACGCATACCTATA [CACACA_site7140] | 10.3
TTTTGAAATTTTTGTGTTTTTCCTTTTTATTTTATA [CACACA_negctrl_site1740] | 9.62
ATAAAGATTAATAAAATAAAATTCCGCAAACATATA [CACACA_negctrl_site244] | 9.7
ATAAATCCATGTAACTGTACTTTTTTTTTTTTTTTT [XGTACX_site7373] | 9.57
TTTTTTTTCTAAATTATATGAAAATATATGTTATGT [GTGCAC_negctrl_site85] | 9.57

Sequence | gcPBM binding intensity (ln)
TACATAAACATTTATACACACATTATAAATACATAT [CACACA_site4386] | 10
ACAATTTTAAAATGAACACACATGTTTTTCTTACTT [CACACA_site1014] | 9.92
ATTTTCTATTTTATTTGTACGTAATTTAATTTTTTT [XGTACX_site3609] | 9.89
ACAAATACTAACAACGCATGTAAGCCTACAATAAAT [TGCATGCA_site551] | 9.81
GCTCCTTTTACCATCGCACACGATAAAAAAAAATAA [CACACA_site3255] | 9.67
ATTATATATATATATATATATATATATATATTATAT [CACACA_negctrl_site234] | 9.65
AATGTAATATAAATATGTACATATAAACTATATATA [XGTACX_site6871] | 9.81
ACTTATGATTTATTTTGTACATATATACTATTCCTG [XGTACX_site5275] | 9.94
GTTTTAAAACAAATATGTACACATAATATAGGAAAG [XGTACX_site1803] | 9.88
TCAAGAATTTTAAAGAGTACATAAAACAATAATATA [XGTACX_site3923] | 9.53
CAAAAATAACGAGTCAAACACACATATATATATATA [CACACA_site2038] | 9.83
AAAGGGATAACACCAAAAAAAATAAAAATAAAAATA [GTGCAC_negctrl_site680] | 9.76
CAACACTTTCAAAAATGTACGTACAAATGTATTTTA [XGTACX_site6713] | 9.64
AGTTTCCATATGAGGTGTACATATATAATTTATTAT [XGTACX_site2369] | 10.1
ACAAAATAAAGACACACACACAAACACAAAAAAATA [CACACA_site7568] | 10.6
ATGCGTATACTAAGAACACACAAGTTACTTGGTGTT [CACACA_site1625] | 9.72
ATTAATGATTTTTGTTGTACATTATTAATTTACATT [XGTACX_site544] | 9.73
TATTTTATATTTCATTTGTTATTTTTCTTGGTTCTA [CACACA_negctrl_site33] | 9.71
CATACATACATACATACACACATACATATGTATTTA [CACACA_site5384] | 9.99
AAAATATAATATATTGCACACAAAAAGTGAATTATT [CACACA_site8489] | 9.92
TACCATTATTTTAAGTGTACATACTAATTTATATAT [XGTACX_site6548] | 9.79
TCTTTCTATTTATAATGTACTCAAAATTATTCTATA [XGTACX_site4867] | 9.59

Sequence | gcPBM binding intensity (ln)
AAATTGTGTGAAATATATTAATATTATTATTATTAT [TGCATGCA_negctrl_site189] | 9.63
TTTTACCACTAAAAATGTACAAAAAAAAAAAAAAAA [XGTACX_site4226] | 8.91
CCTTGCATTTATTATACACACACAAAAAAATATATA [CACACA_site7964] | 9.86
TATGCACCCAGACACACACACACAACTAAAAAATAA [CACACA_site2567] | 10.5
TTTGTAGATTTTGTAACACACACATATATATACATA [CACACA_site8757] | 10
TTGCAAATATATGGTTGTACTCAAAAAAAAAAAAAA [XGTACX_site6975] | 9.17
ATAACAAAATAAAACACACACACAAATGTACATATA [CACACA_site2425] | 10.4
CATATACACCAACACACACACACACCCACAAAAAAA [CACACA_site496] | 11.3
AAATAAATAATTTAATGTACATATATAATATATATA [XGTACX_site1831] | 9.55
TATTTTTCCATATGCACACACACCGTATATATAATA [CACACA_site1127] | 10.7
AATAAAAAAATAGAAACACACATTAAAAAAAATAAA [CACACA_site1333] | 10.1
ATGATATATAGACACACACACATATTTATATACATT [CACACA_site6404] | 10.9
TAAATAAAGTATAATGCATGCTATTATAATATTAAT [TGCATGCA_site825] | 9.74
CACTTTATACGTAATTGTACTTTTTCTTTTTTTTAT [XGTACX_site3175] | 9.83
ACTTACTAATTAATGGGTACATACACACATATATAC [XGTACX_site1362] | 9.95
TATTCAAAGAAAGACAGTACGTGTAGCAAACAACCT [XGTACX_site4218] | 9.86
ATTTTTTTTTTTTTTTTTTTTTTTTAGATTAAGAAA [CACACA_negctrl_site1272] | 9.16
AAATAAAATAAAATAAAATAAAATTCTTTGATACCT [TGCATGCA_negctrl_site604] | 9.61
TATAATTATTTTTTTCTAAATATTATAAGGTATTCA [GTGCAC_negctrl_site205] | 9.34
TACATATAATATATTGCACACGTCAGAATAATATAG [CACACA_site1744] | 9.75
TAATAGAATATGATGGTGCAGCAGTCTTATTTTTCA | 9.61
TTTCTTTCTTCACATATATATATATATATATTTATA [TGCATGCA_negctrl_site341] | 9.84
